In publication PMC4336329 (PLoS ONE, 2015):
Out of some 310,000 compounds screened, about 2,200 (0.71%) showed an effect of 50% or more. Effects have a minus sign here. This is one part of the list.

Target: human ether-à-go-go-related gene (hERG) potassium channel (human, UniProt Q12809)
Assay: primary screen, population patch clamp on CHO cells stably expressing hERG

Chain of human ether-à-go-go-related gene (hERG) potassium channel (Q12809 whole entry, looked up): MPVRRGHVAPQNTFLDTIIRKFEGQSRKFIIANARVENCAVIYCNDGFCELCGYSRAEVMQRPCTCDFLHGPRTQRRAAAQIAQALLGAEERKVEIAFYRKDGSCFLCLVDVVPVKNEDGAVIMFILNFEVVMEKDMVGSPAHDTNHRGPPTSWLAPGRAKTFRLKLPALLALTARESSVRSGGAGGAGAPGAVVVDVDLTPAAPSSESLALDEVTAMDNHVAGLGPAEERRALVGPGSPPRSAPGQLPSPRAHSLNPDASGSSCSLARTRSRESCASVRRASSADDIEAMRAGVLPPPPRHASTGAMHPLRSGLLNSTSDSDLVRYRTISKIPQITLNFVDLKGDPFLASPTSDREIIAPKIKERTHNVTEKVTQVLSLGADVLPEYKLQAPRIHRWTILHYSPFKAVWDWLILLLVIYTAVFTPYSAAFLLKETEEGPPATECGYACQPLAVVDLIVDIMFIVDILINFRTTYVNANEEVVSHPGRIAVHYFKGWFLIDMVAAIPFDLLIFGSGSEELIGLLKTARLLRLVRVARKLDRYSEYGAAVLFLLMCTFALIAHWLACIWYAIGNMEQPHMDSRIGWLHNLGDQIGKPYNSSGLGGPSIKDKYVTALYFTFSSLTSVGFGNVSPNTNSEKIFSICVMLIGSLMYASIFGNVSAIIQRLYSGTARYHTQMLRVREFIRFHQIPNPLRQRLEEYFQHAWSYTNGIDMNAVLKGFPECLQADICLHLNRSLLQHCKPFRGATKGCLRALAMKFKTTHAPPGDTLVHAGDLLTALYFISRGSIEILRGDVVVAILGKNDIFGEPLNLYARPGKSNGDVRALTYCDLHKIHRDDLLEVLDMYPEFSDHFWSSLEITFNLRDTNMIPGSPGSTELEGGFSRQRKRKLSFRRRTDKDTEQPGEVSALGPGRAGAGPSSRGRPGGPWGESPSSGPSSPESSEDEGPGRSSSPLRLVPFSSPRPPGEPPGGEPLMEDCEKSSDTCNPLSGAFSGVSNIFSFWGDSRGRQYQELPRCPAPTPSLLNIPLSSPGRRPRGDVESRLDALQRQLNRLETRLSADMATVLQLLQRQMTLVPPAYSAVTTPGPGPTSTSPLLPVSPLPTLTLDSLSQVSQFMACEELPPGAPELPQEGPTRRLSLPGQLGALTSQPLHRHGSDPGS

| SMILES | hERG current change (%, negative = inhibition) at 1uM |
| --- | --- |
| C=CCNC(=O)/C=C/c1cccs1 | 14.9% |
| Cc1ccccc1CN1CCCC(C(=O)Nc2ccccc2Oc2cccnc2)C1 (stereo not drawn) | 10.6% |
| Cc1ccc(C(=O)N2CCC(C)CC2)cc1C | 11.5% |
| C#CCCOC(=O)Nc1ccccc1 | 7.55% |
| O=C(Nc1ccc(Br)cn1)c1ccc([N+](=O)[O-])o1 | 7.5% |
| Cc1ccccc1NC(=O)COC(=O)c1cc(=O)c2ccccc2o1 | -29.9% |
| O=C(NCCCN1CCOCC1)c1cccc(S(=O)(=O)NCc2ccccc2)c1 | -8.1% |
| COc1ccc(F)cc1C(=O)C1CCCN(C(=O)CCc2ccccn2)C1 (stereo not drawn) | 10.7% |
| CC1CCCN(C(=O)COC(=O)C2CCN(S(=O)(=O)c3c(Cl)cccc3Cl)CC2)C1 (stereo not drawn) | 0.009% |
| CCCC(=O)NC(c1ccc2c(c1)OCO2)c1cc(Cl)c2cccnc2c1O (stereo not drawn) | 1.99% |
| Cc1ccc(C)c(S(=O)(=O)N2CCN(C(=O)c3ccc(OCc4c(C)noc4C)cc3)CC2)c1 | 0.112% |
| Nc1ccc(C(=O)N/N=C/c2cn(Cc3ccc(F)cc3)c3ccccc23)cc1 | 8.44% |
| CC(C)Cn1cnc2c1c(=O)n(CC(=O)NC(=O)NC(C)(C)C)c(=O)n2Cc1ccccc1 | 10.7% |
| CCOC(=O)N1CCN(C(=O)C2CCN(c3nnc(-n4cccc4)s3)CC2)CC1 | -35.5% |
| Oc1c(C(c2ccccc2)N2CCN(Cc3ccccc3)CC2)sc2ncnn12 (stereo not drawn) | -20.2% |
| COCCN(C(=O)CNC(=O)c1ccco1)C(C(=O)NC1CCCC1)c1cccs1 (stereo not drawn) | 17.1% |
| CCC(OC(C)=O)c1cc2c(cc1[N+](=O)[O-])OCCO2 (stereo not drawn) | 9.32% |
| Clc1ccc(-c2nnc(C3CCCCC3)o2)cc1 | 11.6% |
| CC1(C)CC(=O)N(CC(=O)NCc2ccccc2)c2ccccc2S1(=O)=O | 8.03% |
| Cc1c(Cl)cccc1NC(=O)Nc1cc(C(C)(C)C)on1 | 17.3% |
| COc1ccc(NC(=O)COc2ccc(/C=N/n3c(C)nnc3C)cc2OC)cc1 | 5.6% |
| CCCNc1nc(C)cc(-c2cc(C(=O)NC3CCCC3)on2)n1 | 19.3% |

| SMILES | hERG current change (%, negative = inhibition) at 1uM |
| --- | --- |
| O=C(C1CCN(S(=O)(=O)c2cccc3nsnc23)CC1)N1CCc2ccccc21 | 7.27% |
| CCNC(=O)NC(=O)COC(=O)CCCSc1nc2ccccc2s1 | 11.8% |
| Cc1cccc(CSC2=CS(=O)(=O)c3ccccc3N2)c1 | -0.533% |
| C(=N\Nc1nc(N2CCCC2)nc(N2CCCC2)n1)/c1ccccc1OCc1ccccc1 | 17.6% |
| COCCN1CCN(Cc2cn[nH]c2-c2cc3ccccc3o2)CC1 | 11.2% |
| O=C(CCN1N=C(c2ccccc2)CCC1=O)NCC1CCCO1 (stereo not drawn) | 20.2% |
| CC1=C/C(=C(/c2ccc(O)c(C)c2)c2ccccc2S(=O)(=O)[O-])C=CC1=O.[Na+] | 12.9% |
| O=C(CCn1c2c(c3ccccc31)CCCC2)NNC(=O)c1ccc(Cl)c([N+](=O)[O-])c1 | -5.09% |
| Cc1cccc(C(=O)Nc2ccc(C(=O)N/N=C/c3cccnc3)cc2)c1 | 10.6% |
| CCOCC(=O)N1CCN(c2ccc(F)cc2)CC1 | 13.8% |
| O=C(O)c1ccccc1/C=N/Nc1ccc(S(=O)(=O)N2CCOCC2)cc1[N+](=O)[O-] | 7.69% |
| O=C1CSC(c2ccc(Cl)cc2)N1c1cccnc1 (stereo not drawn) | 11.6% |
| CCOc1cc(C2C(C(=O)c3ccco3)=C(O)C(=O)N2Cc2ccccc2)ccc1O (stereo not drawn) | 14.5% |
| COc1ccc(NC(=O)c2ccc(S(=O)(=O)N(C)C)cc2)cc1 | 6.38% |
| CC1CCN(S(=O)(=O)c2ccc(C(=O)Nc3ccccc3-c3nc4ccccc4[nH]3)cc2)CC1 | 14.3% |
| C/C(=N\Nc1nc2ccccc2[nH]1)c1ccc(Cl)s1 | 7.51% |
| Cn1c(N2CCCC2)nc2c1c(=O)[nH]c(=O)n2C | 10.8% |
| Cc1cc(CN(C)Cc2ccc(OCC(O)CN(C)Cc3ccccc3)cc2)on1 (stereo not drawn) | 9.75% |
| COc1cccc(NC(=O)c2ccccc2-c2nc(-c3cccc(C)c3)no2)c1 | 9.44% |
| COc1ccc(-n2nc(C(=O)NCC(=O)N3CCN(c4ccc(F)cc4)CC3)c3ccccc3c2=O)c(OC)c1 | 2.68% |
| CC(=O)/C(N=Nc1ccc2c(c1)OCCO2)=C(\C)O | 10.9% |
| Cc1ncc(CN2CCN(CCC(C)C)C(CCO)C2)s1 (stereo not drawn) | 1.93% |

| SMILES | hERG current change (%, negative = inhibition) at 1uM |
| --- | --- |
| O=C(Nc1ccc(Oc2cccc3ccccc23)cc1)c1ccco1 | 6.66% |
| CCc1ccc2nc(/N=C(\N)NC(=O)c3ccccc3)nc(C)c2c1 | 9.4% |
| CCCn1nnc(NC(=O)c2ccc([N+](=O)[O-])cc2Cl)n1 | 6.63% |
| CCN(C(=O)COC(=O)CSc1cc(C)c2ccccc2n1)c1ccccc1 | 5.64% |
| Cc1cnn(C(=O)c2ccccc2Br)c1 | 2.16% |
| Cc1nc(Cl)sc1C(=O)Nc1ccc(C(F)(F)F)cc1 | 14% |
| CC(=O)N1CCN(S(=O)(=O)c2ccc(S(=O)(=O)NC3CCCCC3)cc2)CC1 | 6.82% |
| Cc1nn(C)c(C)c1NS(=O)(=O)c1ccc(N2CCCC2=O)cc1 | 13.9% |
| CC(=O)Oc1ccc2oc3c(c2c1)C(=O)CCC3 | 0.512% |
| CCCCC(CC)C(=O)Nc1cc(C(=O)NCc2ccc(C)cc2)ccc1N1CCC2(CC1)CC(c1ccccc1)=NO2 (stereo not drawn) | 5.64% |
| O=C(CCC(=O)c1ccc(Cl)cc1)OCc1nc2ccsc2c(=O)[nH]1 | 1.9% |
| CCCCn1c(N)c(N(CCC(C)C)C(=O)C2CC(=O)N(c3ccc4c(c3)OCCO4)C2)c(=O)[nH]c1=O (stereo not drawn) | -3.96% |
| Cc1ccc(/C(O)=C2/C(=O)C(=O)N(c3ccccn3)C2c2cccc([N+](=O)[O-])c2)cc1 (stereo not drawn) | 11.1% |
| CSc1ccccc1-c1nnc(-c2ccc(C)cc2)o1 | 7.28% |
| CCN(CC)c1ccc(/C=N/n2c(=S)[nH]nc(C)c2=O)cc1 | -4.27% |
| C=CCN(c1ccccc1)S(=O)(=O)c1cccc(C(=O)Nc2nnc(SCC)s2)c1 | 7.8% |
| CC1=C(C#N)C(c2cccnc2)C2=C(CC(c3ccc(Cl)cc3)CC2=O)N1 (stereo not drawn) | 9.05% |
| Cc1nn(C)cc1/C=C/C(=O)c1ccc(O)cc1 | 12.9% |
| COc1cc(C(=O)Nc2ccc(S(=O)(=O)Nc3ncccn3)cc2)c([N+](=O)[O-])cc1OC | 12% |
| CCOC(=O)/C(C#N)=C/Nc1ccccc1OC(F)(F)F | 4.69% |
| O=S1(=O)CC2(N3CCOCC3)CCCCC21 (stereo not drawn) | -6.93% |
| Cc1cccc(C(=O)NCc2nnc(SCC(=O)NC3CCCC3)n2C)c1 | 11.2% |

| SMILES | hERG current change (%, negative = inhibition) at 1uM |
| --- | --- |
| CCOC(=O)C1(Cc2cccc(OC)c2)CCN(Cc2ccc(OC)c(OC)c2)CC1 | -24.9% |
| COc1ccc(N2CCN(C(=O)CSc3nnc(-c4cc5ccccc5cc4O)n3C)CC2)cc1 | -11.4% |
| O=C(NCC(=O)N(c1cccc(F)c1)C(C(=O)NCC1CCCO1)c1ccccc1)c1ccco1 (stereo not drawn) | 8.81% |
| O=C(COc1ccc(Cl)cc1Cl)Nc1ccccc1F | 14.6% |
| CCOc1ccc(Oc2nc(NCC(C)C)nc(N(C)C)n2)nn1 | 14% |
| N/C(=N\OC(=O)CC1CCCCC1)c1ccncc1 | 12.3% |
| NS(=O)(=O)c1ccc(CCNC2CC(=O)N(Cc3ccccc3)C2=O)cc1 (stereo not drawn) | 6.24% |
| O=C1NC(=S)S/C1=C/c1ccc(Oc2cnccn2)cc1 | 11.6% |
| O=C(NNC(=O)C1CC(c2cccnc2)=NO1)Nc1ccccc1F (stereo not drawn) | 7.04% |
| COc1ccc(OC)c(N/C(N)=N/c2nc(C)cc(C)n2)c1 | -26.5% |
| CN(C)/C=C1\C(=O)ON=C1c1ccccc1 | 3.76% |
| O=C(Nc1ncccc1O)c1ccc(Cl)c(S(=O)(=O)N2CCCCCC2)c1 | -23.1% |
| CCN(Cc1ccc2c(c1)OCO2)C(=O)CSc1nc(C)nc2sc(C)c(C)c12 | 4.61% |
| O=C(CSc1nc(-c2cccs2)nc2ccccc12)NC1CCS(=O)(=O)C1 (stereo not drawn) | 17.3% |
| Cc1cc(NC(=O)Nc2cccs2)no1 | 19.6% |
| CC(=O)Nc1cc2nc(C)n(Cc3ccc([N+](=O)[O-])cc3)c2nc1C | 14.2% |
| CCOc1ccc(C2N(c3cc(C)on3)C(=O)C3CCCN32)cc1OC (stereo not drawn) | 18.6% |
| O=C(NNC(=O)c1cc(-c2ccccc2)nc2ccccc12)c1csc(N2CCOCC2)n1 | 6.83% |
| Cc1ccc(S(=O)(=O)c2nc(-c3ccccc3)oc2NCCN2CCOCC2)cc1 | 4.83% |
| Cc1nnc(SCc2cccc(Oc3ccccc3)c2)n1N | -8.9% |
| O=C(NNc1c(Cl)cc(Cl)cc1Cl)c1n[nH]c(=O)c2ccccc12 | 1.45% |
